The campaign covered roughly 210,000 compounds. About 5,900 (2.8%) were called active. The inconclusive results got no clear call from the source; some entries with a clear call stand among them for comparison. Calls follow the shape of the dose curve; as a rule, active = well fitted activation curve with a large enough effect; inconclusive = small, poorly fitted or top-dose-only effect; inactive = no such curve, though single readings can be large or run the other way. Where the call is inconclusive, the potency comes from a doubtful curve fit.
Assay: qHTS Assay for Enhancers of SMN2 Splice Variant Expression; also: nearly all actives have a fitted effect of over 55% in size; as to activity change, positive = activation: % of control where 0% means no effect
Settings: HEK293 SMN2-luciferase splicing reporter, luminescence, 30-36 h; activity change, positive = activation: at 46.1 µM (top of the series)
Outline: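 qHTS luciferase splicing reporter: luminescence rises when SMN2 exon 7 is included in transfected HEK293 cells. Compound exposure lasted 30-36 h at 37C, with 4.5 mM final sodium butyrate as control, followed by a ONE-Glo read.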
Potency is read from the fitted curve at half-maximal effect; tags tell the direction and shape of the fitted curve.

Structure (SMILES)	Potency	activity change, positive = activation
CCOc1ccc2nc(N3CCC(C(=O)Nc4nnc(CC)s4)CC3)sc2c1	active: 2.24 µM	
O=C(COC(=O)Cc1ccccc1F)Nc1ccc(SC(F)F)cc1	inconclusive: 1.41 µM [activator, full curve, poor fit]	
Clc1ccc(-c2noc(CN3CCCC3)n2)cc1	inconclusive: 17.8 µM [activator, single point]	
CCc1ccc(-n2nc3ccc(NC(=O)c4cc(Cl)c(OC)c(Cl)c4)cc3n2)cc1	inactive	
CNc1ncnc2c1ncn2[C@@H]1O[C@H](CO)[C@H](O)[C@H]1O	inconclusive: 1.78 µM [activator, full curve, poor fit]	
COc1cccc(/C=C/C(=O)OCC(=O)Nc2cccc(S(=O)(=O)N3CCCCC3)c2)c1OC	inconclusive: 0.0891 µM [activator, full curve, poor fit]	
O=C(O)c1ccc(-n2nc(C(F)(F)F)c3c2CCCC3)cc1	inactive	
Cn1nnnc1SCc1nnc(-c2ccc(F)cc2)o1	inconclusive: 1.12 µM [activator, full curve, poor fit]	
CCn1ncc(C(=O)Nc2cccc(Cl)c2)c1C	active: 12.6 µM	
CN(C)S(=O)(=O)c1ccc(C(=O)Nc2cc(=O)n(C)c(=O)n2C)cc1	inactive	
O=C(OC1CCCCC1)c1ccc2c(c1)C1C=CCC1C(C(=O)O)N2 (stereo not given)	inconclusive: 15.8 µM [activator, partial curve, poor fit]	
CCc1cc(C(=O)NC(C)c2ccccc2)no1 (stereo not given)	inactive	
COC(=O)c1cc(NC(=O)[C@H](CCS(C)(=O)=O)N2Cc3ccccc3C2=O)cc(C(=O)OC)c1	inactive	
O=[N+]([O-])c1cc2c(c(CSc3ncccn3)c1)OCOC2	inconclusive: 15.8 µM [activator, partial curve, poor fit]	
Cc1ccc(C)c(CN2C(=O)c3ccccc3S(=O)c3ccc(C(=O)N4CCN(c5ccccc5F)CC4)cc32)c1 (stereo not given)	active: 0.631 µM	
Cc1c2c(nc3ccccc13)-c1cccc(=O)n1C2	inconclusive: 3.98 µM [activator, single point]	
COc1ccc(Nc2nc3cc(Cl)c(Cl)cc3n3cnnc23)cc1Cl	inactive	
CCn1ncc([N+](=O)[O-])c1C(=O)n1nc(C)cc1C	inconclusive: 22.4 µM [activator, single point]	
Cc1nn(C)cc1C(=O)Nc1c(C)nn(Cc2ccccc2Cl)c1C	inconclusive: 14.1 µM [activator, single point]	
Nc1c(N=Nc2ccccc2F)c(=O)[nH]n1-c1ccccc1	inactive	
CC(C)c1ccc(NC(=O)c2ccc3c(c2)CCCN3S(C)(=O)=O)cc1	inactive	
Cc1occc1C(=O)Nc1ccc2c(c1)CCC2	active: 11.2 µM	
COc1ccc(CC(=O)NC2CCN(Cc3nnnn3C(C)(C)C)CC2)cc1OC	inconclusive: 2.82 µM [activator, partial curve, poor fit]	

Structure (SMILES)	Potency	activity change, positive = activation
COc1ccc(NCc2nc3ccccc3n2CCOc2ccccc2)cc1	inconclusive: 11.2 µM [activator, partial curve]	
COc1cc2nc(SCc3c(C)noc3C)n(CCC3=CCCCC3)c(=O)c2cc1OC	inconclusive: 28.2 µM [activator, partial curve]	
O=C(Nc1ccccc1N1CCN(C(=O)c2ccc(Cl)cc2)CC1)c1ccc2c(c1)OCO2	inconclusive: 11.2 µM [activator, partial curve, poor fit]	
Cc1ccc(-c2cc(N)n(Cc3cccc(Cl)c3)n2)cc1	inactive	
COC(=O)C(C(=O)OC)[C@@H]1O[C@@]23COC=C[C@]2(C)[C@H]3c2ccccc21	inactive	
c1ccc(C2CCC(N3CCNCC3)CC2)cc1 (stereo not given)	inconclusive: 5.62 µM [activator, single point]	
COc1ccc(NC(=O)CSc2nnc(NC(=O)c3ccc(S(=O)(=O)N4CCOCC4)cc3)s2)cc1	inconclusive: 35.5 µM [activator, single point]	
COC(=O)c1sccc1-c1ccc(C(N)=O)o1	inactive	
CCOc1ccc(N2C(=O)CC(N(CCc3ccc(OC)c(OC)c3)C(=S)Nc3ccccc3)C2=O)cc1 (stereo not given)	inconclusive: 6.31 µM [activator, partial curve, poor fit]	
CCn1cc(C(=O)NCc2ccc3c(c2)OCO3)c(=O)c2cc(S(=O)(=O)N3CCOCC3)ccc21	inconclusive: 0.501 µM [activator, single point]	
Cc1cc(C)n2nc(-c3ccc(Cl)cc3)nc2n1	active: 15.8 µM	
Cc1cc2cc(CNC(=O)Nc3ccccc3)ccc2[nH]1	inconclusive: 14.1 µM [activator, single point]	
O[C@@H](c1cc(-c2ccccc2)nc2c1ccc1ccccc12)C1CCCCN1 (stereo not given in full)		inactive: -4.75% [at 9.22 µM]
Cn1cc(C(=O)NC2CCCCC2)c(=O)c2cc(S(=O)(=O)N3CCCC3)ccc21	active: 11.2 µM	
Cc1ccc(C)c(NC(=O)CN(C)S(=O)(=O)c2ccccc2)c1	inconclusive: 3.55 µM [activator, partial curve]	
O=C(NCc1ccccn1)C(=O)NCc1ccccn1	inconclusive: 5.62 µM [activator, single point]	
CN(C(=O)COC(=O)CNC(=O)C12CC3CC(CC(C3)C1)C2)C1CCS(=O)(=O)C1 (stereo not given)	inconclusive: 3.98 µM [activator, single point]	
NC(=O)c1c(NC(=O)c2ccccc2)sc2c1CCc1ccccc1-2	inconclusive: 12.6 µM [activator, single point]	
COc1ccccc1C(=O)Nc1ccc2c(c1)nc(CCNC(C)=O)n2C	inconclusive: 15.8 µM [activator, single point]	
CS(=O)(=O)Nc1ccc(C(=O)Nc2ccc3c(c2)OCCO3)cc1	inconclusive: 11.2 µM [activator, partial curve]	
CCOc1ncccc1C(=O)OCC(=O)c1ccc(C)c(C)c1	inconclusive: 3.55 µM [activator, single point]	
COC(=O)CC1=NN(c2ccc(OC)cc2)C(=O)/C1=C\c1ccc(Cl)cc1	inconclusive: 35.5 µM [activator, single point]	

Reference: PubChem BioAssay AID1458 (National Center for Advancing Translational Sciences (NCATS), 2008)
